Results as given in publication PMC10320511.
These are yes or no findings as the source states them, for the method shown. In cells and extracts the contact can be indirect. Some entries that bind do so weakly or less than the wild type. Tags and fused reporters may be left off the sequences shown.

Columns and labels:
[1] = biological target: T1, FRQ Δ250–310, V5H6-tagged (Neurospora crassa) (UniProt P19970); experiment: co-IP; V5H6-tagged FRQ (wild type or mutant) pulled down with V5 agarose from Neurospora lysate (cultures in the light, 25 °C); 50 mM Hepes pH 7.4, 137 mM NaCl, 10% glycerol, 0.4% NP-40; 4 °C, 2 h; Western blot with FRQ, FRH, WC-1 and WC-2 antibodies
T1 sequence: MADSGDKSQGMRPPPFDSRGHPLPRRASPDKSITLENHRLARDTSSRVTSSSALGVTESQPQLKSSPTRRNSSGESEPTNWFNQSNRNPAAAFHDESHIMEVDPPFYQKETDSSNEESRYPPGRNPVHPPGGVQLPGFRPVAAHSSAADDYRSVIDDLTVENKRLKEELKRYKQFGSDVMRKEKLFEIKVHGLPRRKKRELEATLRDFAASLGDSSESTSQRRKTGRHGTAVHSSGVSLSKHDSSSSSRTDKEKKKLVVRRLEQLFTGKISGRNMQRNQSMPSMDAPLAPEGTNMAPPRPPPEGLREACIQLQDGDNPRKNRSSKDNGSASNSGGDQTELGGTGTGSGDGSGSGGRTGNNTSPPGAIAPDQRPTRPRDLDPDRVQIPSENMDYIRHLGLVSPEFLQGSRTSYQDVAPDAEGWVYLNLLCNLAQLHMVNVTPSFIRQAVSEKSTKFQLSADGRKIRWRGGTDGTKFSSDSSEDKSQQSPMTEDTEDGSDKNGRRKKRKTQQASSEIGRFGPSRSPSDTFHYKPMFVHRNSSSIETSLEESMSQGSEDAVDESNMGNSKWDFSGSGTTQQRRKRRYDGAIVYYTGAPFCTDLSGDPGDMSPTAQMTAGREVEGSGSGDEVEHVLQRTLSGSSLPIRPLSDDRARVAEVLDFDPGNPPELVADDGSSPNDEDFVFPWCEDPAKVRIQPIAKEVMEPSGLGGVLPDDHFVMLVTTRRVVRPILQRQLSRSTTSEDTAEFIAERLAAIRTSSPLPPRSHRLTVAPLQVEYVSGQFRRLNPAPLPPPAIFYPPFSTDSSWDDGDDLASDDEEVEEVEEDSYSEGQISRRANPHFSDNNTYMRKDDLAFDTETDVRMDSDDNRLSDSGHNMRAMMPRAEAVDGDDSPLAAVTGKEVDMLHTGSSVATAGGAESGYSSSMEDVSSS

[2] = biological target: T2, FRQ Δ107–148, V5H6-tagged (Neurospora crassa) (UniProt P19970); experiment: as above
T2 sequence: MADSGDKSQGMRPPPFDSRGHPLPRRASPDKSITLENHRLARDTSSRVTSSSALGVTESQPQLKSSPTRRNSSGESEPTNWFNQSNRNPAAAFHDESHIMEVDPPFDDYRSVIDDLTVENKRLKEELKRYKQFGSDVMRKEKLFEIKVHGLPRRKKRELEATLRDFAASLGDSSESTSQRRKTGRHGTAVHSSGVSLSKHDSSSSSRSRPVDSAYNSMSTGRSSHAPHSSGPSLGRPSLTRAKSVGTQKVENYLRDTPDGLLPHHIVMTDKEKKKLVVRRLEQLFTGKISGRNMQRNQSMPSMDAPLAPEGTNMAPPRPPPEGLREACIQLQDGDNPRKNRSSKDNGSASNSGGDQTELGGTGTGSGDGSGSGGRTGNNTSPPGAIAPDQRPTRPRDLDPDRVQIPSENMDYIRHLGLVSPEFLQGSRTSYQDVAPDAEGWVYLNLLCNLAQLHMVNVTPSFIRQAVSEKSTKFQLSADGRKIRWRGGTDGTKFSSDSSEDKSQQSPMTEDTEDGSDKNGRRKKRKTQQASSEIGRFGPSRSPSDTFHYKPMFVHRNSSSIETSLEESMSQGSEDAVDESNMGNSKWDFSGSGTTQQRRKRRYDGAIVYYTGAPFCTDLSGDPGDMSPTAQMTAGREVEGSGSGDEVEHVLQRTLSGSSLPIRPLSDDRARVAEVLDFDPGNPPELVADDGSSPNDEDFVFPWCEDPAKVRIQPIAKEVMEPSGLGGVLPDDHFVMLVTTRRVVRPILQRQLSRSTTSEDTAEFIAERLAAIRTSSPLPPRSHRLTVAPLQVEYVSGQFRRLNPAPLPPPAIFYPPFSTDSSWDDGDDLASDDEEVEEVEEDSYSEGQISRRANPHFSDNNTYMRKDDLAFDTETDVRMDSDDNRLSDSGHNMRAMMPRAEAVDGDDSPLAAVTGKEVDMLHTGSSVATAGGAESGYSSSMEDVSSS

B1: White Collar-2 (WC-2) (protein, UniProt P78714 1-530)
chain: MSHGQPPPGSSMYGFGAMGMGSGMGSGMGSGMGTGMGTGMGTGMSASQMTSDPQDMMSLLDTSVFPGFDGMSMSLDVGDSMSNPFTPVSVPPPLPAGNAGPSHVGVCGGHGAPDQLFSPDDLIATSMSSAGPMIATPTTTTSGPSGGPSSGGGSTLTEFTKRRNWPAKVVEELQDWEHILDANGRIKHVSPSVEPLTGYKPPEIIDLFLRDLIHPDDVGVFTAELNEAIATGSQLRLFYRFRKKDGNWTIFETVGHAHIAAAKFAPNPQNQSPFCQAVFMMARPYPTKNAGLLDSFLEHKIENERLKRRIAELRREEQEEQEESHRTWRMSQEGRSDVTPSDDTATQMGMTPFYIPMNAQADVMMPPPSQPASSLNIALTRENLEGIAGSRPDSIREKMLRYEGNHADTIEMLTGLKYQEGERSHGITTGNASPTLIKGDAGIAIPLDRDPRTGEKKKKIKVAEEYVCTDCGTLDSPEWRKGPSGPKTLCNACGLRWAKKEKKKNANNNNNGGGIGGHNDIHTPMGDHMG
B1 was tested, and the binding [1] was “binds” and the binding [2] was “binds weakly”.
